Hit rate of the full screen: of about 360,000 compounds, about 25,000 (6.9%) were called active. This list was built around the results that the source calls inconclusive (neither active nor inactive); the mix of calls is not that of the screen. Calls follow the shape of the dose curve; as a rule, active = well fitted inhibition curve with a large enough effect; inconclusive = small, poorly fitted or top-dose-only effect; inactive = flat fitted curve, though single readings scatter. Potencies beside an inconclusive call are fits to weak or partial responses and may not hold up.
These compounds were tested against Luciferin 4-monooxygenase (Photinus pyralis) (UniProt P08659) (assay: qHTS profiling assay for firefly luciferase inhibitor/activator using purifed enzyme and Km concentrations of substrates (counterscreen for miR-21 project)). Settings: purified FLuc, luminescence inhibition; series mostly up to 57.5 µM; activity change, negative = inhibition: at the top concentration.
In short: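 Purified P. pyralis luciferase, 10 nM final, with Km-level 10 uM D-luciferin and 10 uM ATP in 50 mM Tris acetate pH 7.5, 10 mM Mg acetate, 0.01% Tween-20, 0.05% BSA; 6-point qHTS titration about 60 µM downward; luminescence read.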
Also: nearly all actives have a fitted effect of over 55% in size.
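For activity change, negative = inhibition in this document: plate controls were vehicle for no effect and reference inhibitor for full effect.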
Potency is read from the fitted curve at half-maximal effect; tags tell the direction and shape of the fitted curve.

UniProt P08659, sequence (P08659 whole entry, looked up): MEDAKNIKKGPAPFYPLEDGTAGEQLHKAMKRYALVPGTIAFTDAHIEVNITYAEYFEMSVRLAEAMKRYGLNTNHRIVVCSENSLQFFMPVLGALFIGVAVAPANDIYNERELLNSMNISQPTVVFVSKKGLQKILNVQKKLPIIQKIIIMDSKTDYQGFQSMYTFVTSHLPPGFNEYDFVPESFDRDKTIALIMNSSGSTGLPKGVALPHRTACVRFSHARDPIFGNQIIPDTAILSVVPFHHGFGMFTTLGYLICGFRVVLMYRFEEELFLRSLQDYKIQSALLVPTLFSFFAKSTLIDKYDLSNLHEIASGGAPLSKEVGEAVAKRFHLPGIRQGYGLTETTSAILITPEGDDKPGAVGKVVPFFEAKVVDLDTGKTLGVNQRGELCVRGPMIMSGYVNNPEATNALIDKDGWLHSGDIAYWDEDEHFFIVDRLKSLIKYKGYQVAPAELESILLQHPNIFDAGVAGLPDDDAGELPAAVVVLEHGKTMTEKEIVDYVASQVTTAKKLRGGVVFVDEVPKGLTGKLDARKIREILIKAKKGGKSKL

SMILES | Potency | activity change, negative = inhibition
CC(C)/C=N/NC(=O)c1cc(Br)ccc1O | inconclusive: 33.8 µM [inhibitor, single point] | –
Cc1ccc(/C=C/C(=O)NCC2COc3ccccc3O2)o1 (configuration not stated) | inconclusive: 12 µM [inhibitor, partial curve] | –
CCOc1ccc(C2Nc3cccc4cccc(c34)N2)cc1OC | inconclusive: 37.9 µM [inhibitor, single point] | –
COc1ccc(NC(=O)c2cc(-c3ccccc3)on2)cc1 | inconclusive: 30.1 µM [inhibitor, single point] | –
CC(=O)c1ccc(S(=O)(=O)Nc2ccc(-c3cn4c(C)csc4n3)cc2)cc1 | inconclusive: 19 µM [inhibitor, partial curve] | –
C=CCOC(=O)C1=C(C)NC(SCC(=O)N(CC)CC)=C(C#N)C1c1ccccc1 (configuration not stated) | – | inactive: 0.499%
COc1ccc(N/C=C/C(=O)C(F)(F)F)cc1 | inconclusive: 16.9 µM [inhibitor, partial curve, poor fit] | –
CCc1ccc(N2CC(c3nnc(NC(=O)c4ccco4)s3)CC2=O)cc1 (configuration not stated) | inconclusive: 15.1 µM [inhibitor, partial curve] | –
COc1cccc(NC(=O)Cn2c(CCC(=O)O)ccc2-c2ccc(C)cc2)c1 | inconclusive: 21.3 µM [inhibitor, partial curve, poor fit] | –
COc1ccc(Nc2c(-c3ccc(C)cc3)nc3cnccn23)cc1 | inconclusive: 37.9 µM [inhibitor, partial curve, poor fit] | –
CCN1C(C)=C(C)S/C1=C1\SC(=S)N(N)C1=O | – | inactive: -14.1%
COc1ccc(OC)c(S(=O)(=O)Nc2cc(C)on2)c1 | – | inactive: -0.41%
O=C(O)/C=C/c1cn(Cc2ccccc2)nc1-c1cccs1 | inconclusive: 30.1 µM [inhibitor, single point] | –
O=C(NC(=S)Nc1ccccc1Cl)c1csnn1 | active: 13.5 µM | –
COc1ccc(Cc2noc(CN3CCCC(OCc4ccccn4)C3)n2)cc1OC (configuration not stated) | – | inactive: -2.15%
CCOc1ccc(NC(=O)CN2C(=O)CSC2=O)cc1 | inconclusive: 26.9 µM [inhibitor, single point] | –
CCN(C(=O)c1cc2c(=O)n3ccccc3nc2s1)C1CCCCC1 | inconclusive: 26.9 µM [inhibitor, single point] | –
COc1ccc(NC(=O)c2ccc(-c3ccc(OC)cc3)s2)cc1 | – | inactive: -0.798%
Cc1cccc(/C=N/NC(=O)c2cc(Br)ccc2O)n1 | active: 23.9 µM | –
O=C(CSc1nnc(-c2ccccc2Cl)o1)Oc1ccc(Br)cc1 | inconclusive: 23.9 µM [inhibitor, single point] | –
Clc1ccc(-n2cc(COCc3ccccc3)nn2)cc1 | active: 1.9 µM | –
CN(C)c1ccc(/C=C/c2cc[n+]([O-])cc2)cc1 | inconclusive: 26.9 µM [inhibitor, single point] | –
O=C(NNC(=O)c1ccccc1O)c1cc2ccccc2o1 | active: 26.9 µM | –
COc1ccccc1N1CCN(C2CCCN(C(=O)c3ccccn3)C2)CC1 (configuration not stated) | – | inactive: 0.528%

SMILES | Potency | activity change, negative = inhibition
Cc1c(Br)c(O)c(Br)c(O)c1/C=N/n1c(-c2ccccc2)n[nH]c1=S | inconclusive: 26.9 µM [inhibitor, single point] | –
O=C(O)c1cccnc1Nc1ccc(Cl)cc1 | active: 16.9 µM | –
Cc1cc(C)c2nc(N3CCC(C(=O)NCc4cccnc4)CC3)sc2c1 | inconclusive: 37.9 µM [inhibitor, single point] | –
Nc1cc(N)nc(SCC(=O)N2CCc3ccccc32)n1 | inconclusive: 16.9 µM [inhibitor, partial curve] | –
CCCOc1ccc(-c2nonc2NC(=O)c2ccco2)cc1OCCC | – | inactive: -3.66%
O=C(CCn1cnc2ccccc21)N/N=C/c1ccccc1O | active: 8.49 µM | –
Cc1cc(Br)cc(C)c1NC(=O)c1sc2ncn(Cc3cccc(F)c3)c(=O)c2c1C | – | inactive: 0.4%
O=C(NCCCN1CCCC1=O)C1CCN(S(=O)(=O)c2ccc(Cl)cc2)CC1 | – | inactive: 5.57%
O=C1C=C(c2ccc(Cl)cc2)C(=O)N1Nc1ccccc1 | inconclusive: 6.75 µM [inhibitor, partial curve, poor fit] | –
Cc1ccc(NC(=O)c2ccc3ccccc3n2)nc1 | active: 1.69 µM | –
CC(C)c1nn2c(=O)cc(COC(=O)C3CCCCC3)nc2s1 | active: 23.9 µM | –
Cc1ccc(/C=N/NC(=O)Nc2ccccc2)o1 | active: 10.7 µM | –
Cc1ccc(OC(=O)c2cccc(S(=O)(=O)N3CCCC3)c2)c(-n2nc3ccccc3n2)c1 | inconclusive: 9.53 µM [inhibitor, partial curve, poor fit] | –
CCCOc1cccc(C2c3c(oc4ccc(F)cc4c3=O)C(=O)N2CCCN2CCOCC2)c1 (configuration not stated) | – | inactive: 1.6%
Cc1ccc(CNC(=O)C(=O)Nc2nccs2)cc1 | inconclusive: 21.3 µM [inhibitor, partial curve, poor fit] | –
Cc1cc(/C=C2/C(=N)N3C(=NC2=O)SN=C3S(C)(=O)=O)c(C)n1-c1ccccc1F | active: 0.301 µM | –
Cc1csc(NC(=O)CSc2nc3ccccc3s2)n1 | inconclusive: 37.9 µM [inhibitor, partial curve, poor fit] | –
Cc1ccc(-c2csc(NC(=S)NC(=O)c3ccco3)n2)cc1 | inconclusive: 21.3 µM [inhibitor, partial curve, poor fit] | –
Cc1ccc(Oc2ccc(/C=N/O)cn2)cc1 | inconclusive: 15.1 µM [inhibitor, partial curve] | –
Cn1cc(CNC(=O)c2cc(COc3ccc4c(c3)CCCC4)on2)cn1 | inconclusive: 23.9 µM [inhibitor, partial curve, poor fit] | –
Cc1cccc(N2CCN(C(c3ccccc3)c3nnc(-c4ccccc4F)o3)CC2)c1C (configuration not stated) | inconclusive: 21.3 µM [inhibitor, partial curve, poor fit] | –
O=C(CN1C(=O)S/C(=C\c2cccs2)C1=O)Nc1ccc(O)cc1C(=O)O | inconclusive: 37.9 µM [inhibitor, partial curve, poor fit] | –
Cc1ccc(C(=O)NC(=C(Cl)Cl)S(=O)(=O)c2ccccc2)cc1 | inconclusive: 37.9 µM [inhibitor, partial curve, poor fit] | –

Reference: PubChem BioAssay AID588342 (National Center for Advancing Translational Sciences (NCATS), 2011)
